The values that follow come from article PMC6919601, “Identification of Plasmodium dipeptidyl aminopeptidase allosteric inhibitors by high throughput screening” (PLoS ONE, 2019).

Where “and” joins values, the source holds several entries; their conditions need not be identical. Identical values can stand only once. The whole screen tested about 110,000 compounds, of which about 230 (0.21%) showed an effect of 50% or more. The list shows a part of the results.
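Further: 30 min substrate incubation versus DMSO and 10 µM JCP410 controls.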

The target in the assay is DPAP1 (Plasmodium falciparum, UniProt Q8IIJ9). Put plainly: primary screen, percent inhibition; read by cleavage of a fluorogenic dipeptide substrate; higher = more effect of the substance. Also on record: species or system P. falciparum D10 trophozoite lysates; single well.
Sequence of DPAP1 (Q8IIJ9 whole entry, looked up): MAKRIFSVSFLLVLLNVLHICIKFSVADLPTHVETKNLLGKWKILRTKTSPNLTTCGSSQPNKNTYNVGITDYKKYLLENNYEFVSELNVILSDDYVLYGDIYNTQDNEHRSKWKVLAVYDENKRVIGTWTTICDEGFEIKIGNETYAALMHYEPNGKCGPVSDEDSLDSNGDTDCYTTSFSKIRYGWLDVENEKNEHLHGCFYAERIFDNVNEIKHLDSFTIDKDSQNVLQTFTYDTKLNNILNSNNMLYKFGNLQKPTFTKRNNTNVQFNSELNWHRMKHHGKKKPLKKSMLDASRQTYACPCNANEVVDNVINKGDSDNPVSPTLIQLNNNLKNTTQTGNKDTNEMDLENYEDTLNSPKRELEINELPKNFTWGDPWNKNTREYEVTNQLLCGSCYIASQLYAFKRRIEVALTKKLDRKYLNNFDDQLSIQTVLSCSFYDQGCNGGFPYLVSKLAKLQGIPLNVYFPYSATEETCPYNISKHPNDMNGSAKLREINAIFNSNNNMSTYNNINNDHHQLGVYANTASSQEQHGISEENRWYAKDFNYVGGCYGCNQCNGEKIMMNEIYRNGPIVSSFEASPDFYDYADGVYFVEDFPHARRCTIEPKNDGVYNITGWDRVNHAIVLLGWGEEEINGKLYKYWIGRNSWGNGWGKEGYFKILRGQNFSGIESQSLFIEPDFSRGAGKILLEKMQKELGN
On to `O=C(O)c1cc(-c2ccccc2)nc2c1C(=O)C(O)=CC2=O`, for which the “% Inhibition @ 10 uM” value is given as -1.42%.
For `CCOc1ccc(CCNC(=O)CCCn2c3ccccc3c3cnnc(O)c32)cc1OCC`, the “% Inhibition @ 10 uM” value was 13%.
Turning to `O=C1NC(=O)/C(=C/c2ccc(OCc3cccc4ccccc34)c(Br)c2)N1`, the “% Inhibition @ 10 uM” value turned out to be 3.49%.
In the case of `Cc1ccccc1C(=O)Nc1nnc(S(=O)(=O)N2CCCCC2)s1`, the “% Inhibition @ 10 uM” value is reported as -9.28%.
As to `CCOC(=O)c1ccc2[nH]c3c(c2c1)CCCC3=O`, the “% Inhibition @ 10 uM” value is listed as 0.815%.
As for `CCCn1c(C23CC4CC(CC(C4)C2)C3)cn2c3c(=O)n(C)c(=O)n(C)c3nc12`, the “% Inhibition @ 10 uM” value worked out at 4.96%.
With `CCn1c(Cn2nnc(-c3ccc(C)cc3)n2)nnc1SCC(=O)O`, the “% Inhibition @ 10 uM” value came out at 5.45%.
As to `CCCCSc1nc2c(cc1C#N)CCC2`, the “% Inhibition @ 10 uM” value is 0.317%.
For `CCCCCCSc1nc2n(n1)C(c1cccc(OC)c1OC)C1=C(O)CCCC1=N2` (stereo not drawn), the “% Inhibition @ 10 uM” value was found to be 5.7%.
In the case of `Cc1cc(NC(=O)c2cc3c(s2)-c2c(C)cccc2OC3)no1`, the “% Inhibition @ 10 uM” value is listed as -1.37%.
Consider `CCC(C)NS(=O)(=O)c1ccc(-c2cc(C(F)(F)F)no2)s1` (stereo not drawn), for which the “% Inhibition @ 10 uM” value is listed as -5.31%.
Consider `COc1cccc(CN2CC=C(c3ccc(F)cc3)CC2)c1`, for which the “% Inhibition @ 10 uM” value was 3.15%.
As for `Cc1ccc(C(=O)N/C(=C\c2cccs2)C(=O)N2CCN(Cc3ccccc3)CC2)cc1C`, the “% Inhibition @ 10 uM” value is reported as 4.09%.
On to `COc1ccc(NC(=O)c2ccc(SC)cc2OC)cn1`, for which the “% Inhibition @ 10 uM” value is 1.32%.
The same measure for `CCC(=O)NCC12CC3CC(C1)CC(c1ccc(C)cc1)(C3)C2`: -6.09%.
For the compound `COc1ccccc1CNc1nc2c(S(=O)(=O)c3ccccc3)nnn2c2ccsc12`, the “% Inhibition @ 10 uM” value was -7.46%.
As to `Cc1ccc2[nH]c(SCC(=O)NC3CCCC3)nc2c1`, the “% Inhibition @ 10 uM” value worked out at 0.215%.
As for `COc1cccc2cc(-c3cn(-c4ccc(F)c(F)c4)c(S)n3)c(=O)oc12`, the “% Inhibition @ 10 uM” value is on record as 0.4%.
As for `CSc1nc2sc3c(c2c2nnc(S)n12)CCN(C)C3`, the “% Inhibition @ 10 uM” value was determined as 6.39%.
On to `OCCN(CC#CC(O)(c1ccccc1)C1CCCC1)CCO` (stereo not drawn), for which the “% Inhibition @ 10 uM” value is -6.95%.
Consider `Cc1[nH]c2ccccc2c1C(c1ccncc1)N1CCN(C)CC1` (stereo not drawn), for which the “% Inhibition @ 10 uM” value was -0.968% and -4.12%.
The same measure for `Cn1c(SCC(=O)Nc2nccs2)nc2c(c1=O)SCC2`: 3.11%; for `COc1ccc(OC)c(-c2sccc2CC(=O)O)c1`: -0.0735%.
Turning to `CCc1ccccc1NC(=O)c1ccco1`, the “% Inhibition @ 10 uM” value is listed as -1.92%.
`Cc1ccc(-c2c(C)sc(NC(=O)c3ccnn3C)c2C#N)cc1`: the “% Inhibition @ 10 uM” value is listed as -7.55%.
In the case of `O=C(O)CCC(=O)Nc1cccc2cccnc12`, the “% Inhibition @ 10 uM” value is listed as 3.78%.
The same measure for `O=C1c2ccccc2-c2c(-c3ccccc3)sc(=O)n21`: -4.52%; for `FC(F)(F)c1cc(-c2cccs2)n2nc(Cc3ccccc3)c(-c3ccccc3)c2n1`: 1.4%.
As for `Cc1cc(C)cc(NC(=O)c2ccc(CSc3ncnc4[nH]cnc34)cc2)c1`, the figure is -4.52%; as for `CCOc1ccc(NC(=O)C2=C(C)NC(=O)NC2c2ccc(N(C)C)cc2)cc1` (stereo not drawn), -3.5%; as for `CC(CCc1ccccc1)NC(=O)CCN1N=C(c2ccccc2)CCC1=O` (stereo not drawn), -6.4%.
For the compound `COc1cc(C(CC(=O)NCCCN2CCCC2)N2Cc3ccccc3C2=O)cc(OC)c1OC` (stereo not drawn), the “% Inhibition @ 10 uM” value came out at 3.31%.
With `Cc1ccc(NC(=O)/C(=C\c2cccnc2)NC(=O)c2ccc(C)cc2)cc1`, the “% Inhibition @ 10 uM” value is listed as 2%.
Turning to `CC(C)n1cc(NC(=O)c2ccc(F)cc2)cn1`, the “% Inhibition @ 10 uM” value is listed as 3.66%.
As for `Cc1ccc(NC(=O)c2sc(N)nc2-c2ccc([N+](=O)[O-])cc2)c(C)c1`, the “% Inhibition @ 10 uM” value came to 0.215%.
The same measure for `COc1ccc(S(=O)(=O)Nc2ccccc2Cl)cc1`: 5.06%; for `N#C/C(=C\c1cccs1)c1nc(-c2ccc(-c3ccccc3)cc2)cs1`: 3.06%; for `CCc1ccc(C(C)NC(=O)Nc2ccccc2C)cc1` (stereo not drawn): 7.04%.
With `N#CCNC(=O)[C@H](Cc1ccccc1F)NC(=O)c1ccccc1`, the “% Inhibition @ 10 uM” value is reported as -1.83%.
Take `CCCCOc1ccc(C(=O)Nc2nonc2-c2ccc(OCC)c(OCC)c2)cc1`: the “% Inhibition @ 10 uM” value is recorded as -1.47%.
Consider `CC(=O)Nc1ccc(C2Nc3ccccc3-c3cc(C)nn32)cc1` (stereo not drawn), for which the “% Inhibition @ 10 uM” value is -4.75%.
As to `O=C(Nc1cccc2c(NC(=O)C3CC3c3ccccc3)cccc12)C1CC1c1ccccc1` (stereo not drawn), the “% Inhibition @ 10 uM” value is listed as -4.35%.
As for `CC1=CC(C)C(CNCCCN(C)C)C(C)C1` (stereo not drawn), the figure is 0.162%; as for `O=C(O)CCS(=O)(=O)c1ccc(Br)cc1`, 6.33%; as for `CCCCCn1c(=O)c(C(=O)Nc2ccccc2N)c(O)c2ccccc21`, 5.66%.
Regarding `Cc1cc(C)c2c(N)c(C#N)sc2n1`, the “% Inhibition @ 10 uM” value was found to be 4.12%.
The same measure for `CN1CCN(CCCNC(=O)C2CCC(CNc3nc(S)nc4ccccc34)CC2)CC1` (stereo not drawn): 12.1%.
Turning to `COc1ccc(C2C(C#N)=C(N)OC3=C2C(=O)CCC3)cc1OC` (stereo not drawn), the “% Inhibition @ 10 uM” value is on record as -0.99%.
Regarding `CNC(=O)CSc1cn(CC(=O)N2CCCC2)c2ccccc12`, the “% Inhibition @ 10 uM” value is reported as 0.568%.
As to `COC(=O)C1=C(C)OC(N)=C(C#N)C1c1ccc(Cl)c(Cl)c1` (stereo not drawn), the “% Inhibition @ 10 uM” value is recorded as -6.78%.
For `O=C(CCN1C(=O)c2ccccc2C1=O)Nc1nc(-c2ccccc2)cs1`, the “% Inhibition @ 10 uM” value was 3.86%.
